{
  "source": "the RNAGym collection of RNA variant scans (doi:10.7554/elife.90254)",
  "parents": {"B1": {"name": "OR4K15 (parent)", "chain": "GUUAACGGUCAUAGGCCAUGGAAACUAGGAGCACCAUUUCGCUGCCAGUGAAGAAAUGAACAAAGAAAAUCUGGGCCAGGCAGGCAUCAAAAGAAAUAGUCUUGCGCUCAACCAGAAAGUCUGUAAUCAUUUUAAGGGUA"}},
  "note": "Read counts are not given, so values of variants with three or more changes are uncertain.",
  "data": [
    {"variants_of": "B1", "experiment": "self-cleavage, relative activity (ratio to wild type); higher = more cleavage; in vitro, sequencing; the parent is a self-cleaving ribozyme", "values": [
      {"variant": "GUUAACGGUCAUAGGCCAUGGAAACUAGGAGCACCUUUUCGCUGCCAGUGAAGAAAUGAACUAAGAAUAUCUGGGCCAGGCAGGCAUCAAAAGAAAUAGUCUUGCGCUCAACCAGAAAGUCUGUAAUCAUUUUAAGGGUA", "note": "[A36U A62U A68U]", "self-cleavage": 2.1},
      {"variant": "GUUAACGGUCAUAGGCCAUGGAAACUAGGAGCACCAAUUCGCUGCCAGUGAAGAAAUGAACAAAGAAAAUCUGGGCCAGGCAGGCAUCAUAAGAAAUCAUCUUGCGCUCAACCAGAAAGUCUGUAAUCAUUUUAAGGGUA", "note": "[U37A A90U A98C G99A]", "self-cleavage": 0.93},
      {"variant": "GUUAACGGUCAUAGGCCAUGGAAACUAGGAGCACCAAUUCACAGCCAGUGAAGAAAUGAACAAAGAAAAUCUGGGCCAGGCAGGCAUCAAAAGAAAUAGUCUUGCGCUCAACCAGAAAGUCUGUAAUCAUGUUAAGGGUA", "note": "[U37A G41A U43A U131G]", "self-cleavage": 1.66},
      {"variant": "GUUAACGGUCAUAGGCCAUGGAAACUAGGAGCACCUUUUCGCUGCCAGUGAAGAAAUGAGCAAAGAAGAUCUGGGCCAGGCAGGCAUCAAAAGAAAUAGUCUUGCGCUCAACCAGAAAGUCUGUAAUCAUUUUAAGGGUA", "note": "[A36U A60G A68G]", "self-cleavage": 0.82},
      {"variant": "GUUAACGGUCAUAGGCCAUGGAAACUAGGAGCACCUUUCCGCUGCCAGUGAAGAAAUGAACAAAGAAAAUCUGGGCCAGGCAGGCAUCAAAAGAAAUAGUCUUGCGCUCUACCAGAAAGUCUGUAAUCAUUUUAAGGGCA", "note": "[A36U U39C A110U U139C]", "self-cleavage": 0.55},
      {"variant": "GUUAACGGUCAUAGGCCAUGGAAACUAGGAGCACCUUUUCGCUGCCAGCGAAGAAAUGAACAAAGAAAAUCUGGGCCAGGCAGGCAUCAAAAGAUAUAGUCUUGCGCUCAACCAGAAAGUCUGUAAUCAUUUUAAGGGUA", "note": "[A36U U49C A95U]", "self-cleavage": 0.62},
      {"variant": "GUUAACGGUCAUAGGCCAUGGAAACUAGGAGCACCUUUUCGCUGCCAGUGAAGAAAUGAACAAAGAGAAUCUGGGCUAGGCAGGCAUCAAAAGAAAUAGUCUUGCGCUCGACCAGAAGGUCUGUAAUCAUUUUAAGGGUA", "note": "[A36U A67G C77U A110G A118G]", "self-cleavage": 0.23},
      {"variant": "GUUAACGGUCAUAGGCCAUGGAAACUAGGAGCACCUUUUCGCUGCCAGUGAAGAAAUGAACUAAGAAAAUCUGGGCCAGGCAGGCAUCAAAAGAAAUAGUCUUGCGCUCAACCAGAAAGUCUGAAAUCAUUUUAAGGGUA", "note": "[A36U A62U U124A]", "self-cleavage": 0.32},
      {"variant": "GUUAACGGUCAUAGGCCAUGGAAACUAGGAGCACCUUUUCGCUGCCAGUGAAGAAAUGAACAAAGAAAAUCUGGGCCAGGCAGGCAACAAGAGAAAUAGUCUUGCGCUCAACCAGAAAGUCUGUAAUCAUUUUAAGGGUC", "note": "[A36U U87A A91G A140C]", "self-cleavage": 0.94},
      {"variant": "GUUAACGGUCAUAGGCCAUGGAAACUAGGAGCACCAAUUCGCUGCCAGUGAAGAAAUGAACGAAGAAAAUCUGGGCCAGGCAGGCAUCAAAAGAAAUAGUCUUGCGCUCAACCAGAAAGUCCGUAAUCAUUUUAAGGGUA", "note": "[U37A A62G U122C]", "self-cleavage": 1.79},
      {"variant": "GUUAACGGUCAUAGGCCAUGGAAACUAGGAGCACCAAUUCGCUGCCAGUGAAGAAAUGGACAAAGAAAAUCUGGGCCAGGCAGGCAUCAAAAGAAAUAGUCUUGCGCGCAACCAGAAGGUCUGUAAUCAUUUUAAGGGUA", "note": "[U37A A59G U108G A118G]", "self-cleavage": 0},
      {"variant": "GUUAACGGUCAUAGGCCAUGGAAACUAGGAGCACCUUUUCGCUGCCAGUGAAGAAAUGAACAAAGAAAAUCUGGGCCAGGCAGGCAUCAAAAGAAAUAGUCUUGCGCUCAUCCAGACAGUCUGUAAUCAUUUUAAGGGUA", "note": "[A36U A111U A117C]", "self-cleavage": 0.08},
      {"variant": "GUUAACGGUCAUAGGCCAUGGAAACUAGGAGCACCUUUUCGCCGCCAGUGAGGAAAUGAACGAAGAAAAUCUGGGCCAGGCAGGCAUCAAAAGAAAUAGUCUUGCGCUCAACCAGAAAGUCUGUAAUCAUUUUAAGGGUA", "note": "[A36U U43C A52G A62G]", "self-cleavage": 1.54},
      {"variant": "GUUAACGGUCAUAGGCCAUGGAAACUAGGAGCACCUUUUCGCUGCCAGUGAAGAAAUGAACAAAGGAAAUCUGGGCCAGGCAGGCAUCAAAAGAAAUAGUCUUACGCUCAACCAGGAAGUCUGUAAUCAUUUUAAGGGUA", "note": "[A36U A66G G104A A116G]", "self-cleavage": 0.01},
      {"variant": "GUUAACGGUCAUAGGCCAUGGAAACUAGGAGCACCUUUUCGCUGCCAGUGAAGAAAUGAACAAAGAAAAUCUGGGCCAGGCAGGCAUUAAAAGAAAUAGUCUCGCGCUCAUCCAGAAAGUCUGUAAUCAUUUUAAGGGUA", "note": "[A36U C88U U103C A111U]", "self-cleavage": 0.19},
      {"variant": "GUUAACGGUCAUAGGCCAUGGAAACUAGGAGCACCUUUUCGCUGCCAGAGAGGAAAUGAACAAAGAAAAUCUGGGCCAGGCAGGCAUCAAAAGAAAUAGUCUUGCGCACAACCAGAAAGUCUGUAAUCAUUUUAAGGGUA", "note": "[A36U U49A A52G U108A]", "self-cleavage": 0.03},
      {"variant": "GUUAACGGUCAUAGGCCAUGGAAACUAGGAGCACCUUUUCGCUGCCAGUGAAGAAAUGAACAAAGAAAAUCUGGGCCAGGCUGGCAUCAAAAGGAAUAGUCUUGCGCUCAACCAGAAAGUCUGUAAUCAUUUUAAGGGUA", "note": "[A36U A82U A94G]", "self-cleavage": 0.06},
      {"variant": "GUUAACGGUCAUAGGCCAUGGAAACUAGGAGCACCUUUUCGCUGCCAGUGAAGAAAUGAACAAAGAAAAUCUGGGCCAGGCAGGCAUCAAAAGAAAUAGUCCUGCGCUCAACCAGGAAGUCUGUAAUCAUUUUAAGGGUA", "note": "[A36U U102C A116G]", "self-cleavage": 2.18},
      {"variant": "GUUAACGGUCAUAGGCCAUGGAAACUAGGAGCACCUUUUCGCUGCCAGUGAAGAAAUGAACAAAGAAAAUCUGGGCCAGGCAGGCAUCAAAAGAAGUAGUCUUGCGCUCAACCAGAAAGUCUGUAAACAUUUUAAGGGUA", "note": "[A36U A96G U127A]", "self-cleavage": 2.44},
      {"variant": "GUUAACGGUCAUAGGCCAUGGAAACUAGGAGCACCUUUUCGCUGCCAGUGAAGAAAUGAACAAAUAAAAUCUGGGCCAGGCAGGCAUCAAAAGAAAUAGUCUUGCGCUCAACCAGAAAGUCUGUAAUCAUUCUAAGGGUA", "note": "[A36U G65U U132C]", "self-cleavage": 1.13},
      {"variant": "GUUAACGGUCAUAGGCCAUGGAAACUAGGAGCACCUUUUCGCUGCCAGUGAAGAAAUGAACAAAGAAGAUCUGGGCCAGGCAGGCAUCAAAAGAAAUAGUCAUGCGCUCAACCAGAAAGUCUGUAAUCAUUUUAAGGGUA", "note": "[A36U A68G U102A]", "self-cleavage": 0.89}
    ]}
  ]
}
